The other results are listed elsewhere or left out. The energies were worked out here from pooled read counts, against the library average; single values are noisy.
Molecular target: T1, Pho4 (S. cerevisiae) (UniProt P07270)
T1 sequence: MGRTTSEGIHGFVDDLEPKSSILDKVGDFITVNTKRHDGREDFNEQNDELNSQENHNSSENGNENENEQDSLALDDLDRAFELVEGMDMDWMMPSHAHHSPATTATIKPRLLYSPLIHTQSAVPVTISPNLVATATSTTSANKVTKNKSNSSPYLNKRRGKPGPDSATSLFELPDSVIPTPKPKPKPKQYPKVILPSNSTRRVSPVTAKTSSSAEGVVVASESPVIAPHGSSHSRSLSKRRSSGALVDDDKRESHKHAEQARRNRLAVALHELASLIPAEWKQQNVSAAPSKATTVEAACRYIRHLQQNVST
Assay: relative binding free energy (BET-seq); higher = weaker binding
Conditions: reference: library average

Row | Sequence | relative binding free energy [kcal/mol]
1 | TGGAGCACGTGAAGTT | 0
2 | GTGCGCACGTGGAGGC | -0.09
3 | ATTGTCACGTGAGTGT | 0.2
4 | TGTGGCACGTGAAGGT | 0.09
5 | AGGTACACGTGTCGTG | 0.13
6 | GAGGTCACGTGATTGC | 0.34
7 | GGTTGCACGTGTTATC | 0.06
8 | CTGTGCACGTGGGAAT | 0.01
9 | CGCGGCACGTGATGTT | -0.01
10 | AGAATCACGTGTCGGG | 0.16
11 | GGTCTCACGTGCTTTG | 0.25
12 | GTAAACACGTGTTGGT | -0.07
13 | TTTGTCACGTGATGTA | 0.31
14 | GTCTTCACGTGTGTTC | 0.38
15 | TTGGACACGTGTGCTT | -0.05
16 | TAATGCACGTGTTGCT | -0.15
17 | TACTGCACGTGGTGGC | -0.1
18 | TGTTACACGTGGGGTC | 0.1
19 | ATGGACACGTGTGTAC | 0.08
20 | GGGTGCACGTGGGTGC | -0.08
21 | ATATGCACGTGAGTGC | 0.11
22 | GTGGTCACGTGAATCG | 0.36
23 | AGGGTCACGTGGTGCC | -0.01
24 | TTATTCACGTGAGAGG | 0.46
25 | GTGGCCACGTGATGCG | 0.14

Row | Sequence | relative binding free energy [kcal/mol]
26 | GGACACACGTGGGTTT | -0.12
27 | TGTGGCACGTGACGGA | -0.02
28 | TTTGACACGTGGTCTT | -0.09
29 | TTGGTCACGTGGCCGG | 0.04
30 | TTTTGCACGTGTCCTG | 0.2
31 | TGTCACACGTGGCTGT | 0.05
32 | TGAGGCACGTGAGTAA | 0.08
33 | TCTTACACGTGGGAGG | 0.18
34 | TGTATCACGTGGAGAC | 0.3
35 | CAGGTCACGTGTTATA | 0.19
36 | AGAGGCACGTGTCGGG | -0.05
37 | GTTGTCACGTGATACG | 0.23
38 | GCATTCACGTGGTAGT | 0.2
39 | TCTGTCACGTGGCTGA | 0.16
40 | ATGGGCACGTGATTAG | -0.08
41 | GGTTGCACGTGTTGTC | -0.06
42 | TAGTTCACGTGGCGCG | 0.35
43 | AAGATCACGTGGAGTT | 0.15
44 | TTAAACACGTGTTGTT | -0.06
45 | GAGGGCACGTGGTTGG | -0.07
46 | TGGAACACGTGATGTT | 0.26
47 | TGGATCACGTGAAATG | 0.25
48 | TTAGGCACGTGTTAGT | -0.09
49 | TTTGTCACGTGAATTG | 0.33
50 | TTCGGCACGTGTCGGT | 0.1

Row | Sequence | relative binding free energy [kcal/mol]
51 | AAGGTCACGTGTGAAA | 0.18
52 | TAAAACACGTGAGGTT | 0.26
53 | TGAGCCACGTGTGGAG | -0.04
54 | AATTGCACGTGCAGGG | 0.03
55 | AGGAGCACGTGTTGGA | -0.01
56 | TGAGACACGTGGAAGG | -0.01
57 | TTTAACACGTGATCAT | 0.12
58 | GGTTACACGTGGGGAG | 0.06
59 | CGTGCCACGTGGGTGC | -0.16
60 | CTTATCACGTGTTGTG | 0.09
61 | TCCGTCACGTGTTTGG | 0
62 | TTTAGCACGTGTAGTA | 0.02
63 | CGTAGCACGTGTCTTG | 0.05
64 | TATTCCACGTGTTATG | 0.13
65 | TATACCACGTGTGGGT | 0.03
66 | GCGTACACGTGGGCGG | -0.1
67 | GTAGGCACGTGCCGGT | -0.1
68 | GGTGGCACGTGACGAG | 0.15
69 | GACTTCACGTGGTGGT | 0.27
70 | GTTGTCACGTGTGGCA | 0.2
71 | AGTAGCACGTGTTATA | -0.08
72 | ATGTTCACGTGACGGT | 0.18
73 | AGTAGCACGTGGTCAG | -0.14

Source: the BET-seq Pho4 binding data (Le et al. 2018)
